Experimental data taken from PubChem BioAssay AID588579 (National Center for Advancing Translational Sciences (NCATS), 2011).
Several values for one entry are separate records, joined by “and”; a condition that tells them apart may be missing. Equal entries are not always repeated. Among all 400,000 compounds or so, about 2,200 (0.55%) were called active. The inconclusive results got no clear call from the source; some entries with a clear call stand among them for comparison. Calls follow the shape of the dose curve; as a rule, active = well fitted inhibition curve with a large enough effect; inconclusive = small, poorly fitted or top-dose-only effect, or another doubt; inactive = no such curve, though single readings can be large or run the other way. Potencies beside an inconclusive call are fits to weak or partial responses and may not hold up. Some structures have more than one record in an assay (separate samples or runs), and their calls can disagree.
% is scaled to controls: 0 for no effect and ±100 for the full control effect; potency is read from the fitted curve at half-maximal effect; tags tell the direction and shape of the fitted curve.

Each compound was assayed against DNA polymerase kappa (Homo sapiens) (UniProt Q9UBT6) (assay: qHTS for Inhibitors of Polymerase Kappa). Details: purified Pol kappa, fluorescent DNA synthesis assay, 10 min; series mostly up to 107 µM; activity, negative = inhibition: at the top concentration.
Chain of UniProt Q9UBT6 (Q9UBT6 whole entry, looked up): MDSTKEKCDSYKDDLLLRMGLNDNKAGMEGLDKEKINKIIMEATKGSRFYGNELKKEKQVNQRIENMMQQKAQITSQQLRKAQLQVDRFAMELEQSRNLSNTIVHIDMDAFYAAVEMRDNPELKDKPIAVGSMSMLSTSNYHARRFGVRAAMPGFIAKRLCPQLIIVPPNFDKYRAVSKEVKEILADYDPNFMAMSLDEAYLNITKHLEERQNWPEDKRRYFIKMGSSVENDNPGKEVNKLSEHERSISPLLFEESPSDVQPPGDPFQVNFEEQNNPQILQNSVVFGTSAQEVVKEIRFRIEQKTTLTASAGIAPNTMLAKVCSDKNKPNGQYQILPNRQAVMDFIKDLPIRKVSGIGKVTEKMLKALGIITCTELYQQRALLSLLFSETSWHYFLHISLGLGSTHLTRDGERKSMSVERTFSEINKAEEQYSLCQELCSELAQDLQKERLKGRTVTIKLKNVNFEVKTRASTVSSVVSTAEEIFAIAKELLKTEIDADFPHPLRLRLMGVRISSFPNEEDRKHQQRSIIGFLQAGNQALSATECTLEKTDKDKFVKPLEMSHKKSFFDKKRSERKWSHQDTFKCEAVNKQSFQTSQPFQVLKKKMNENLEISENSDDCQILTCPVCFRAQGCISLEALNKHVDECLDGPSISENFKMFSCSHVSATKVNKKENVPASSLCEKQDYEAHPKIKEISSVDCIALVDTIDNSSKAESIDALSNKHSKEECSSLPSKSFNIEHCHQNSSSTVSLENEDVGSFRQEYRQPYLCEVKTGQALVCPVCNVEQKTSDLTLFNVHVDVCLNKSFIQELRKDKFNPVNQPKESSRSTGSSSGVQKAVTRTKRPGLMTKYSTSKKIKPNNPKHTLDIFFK
Method in brief: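 Here, compound and 10 nM enzyme are combined for 15 min at room temperature; adding 50 nM substrate (final) starts DNA synthesis, tracked by fluorescence at 0 and 10 min against buffer-only wells.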
For `CN(C)[C@@H]1C(=O)C(C(N)=O)=C(O)[C@@]2(O)C(=O)C3=C(O)c4c(O)cccc4[C@@](C)(O)[C@H]3[C@H](O)[C@@H]12`, the Potency was active: 3.36 µM and active: 2.82 µM.
For `CCCCC/C=C\C/C=C\C/C=C\C/C=C\CCCC(=O)NCCCC(=O)O`, the Potency was active: 14.1 µM.
For `CC(C)=CCN1CC[C@@]2(C)c3cc(O)ccc3CC1C2C` (stereo not given in full), the Potency was inconclusive: 0.631 µM [inhibitor, full curve, poor fit].
`CN1CCc2cc3c(c4c2[C@H]1Cc1ccccc1-4)OCO3` was tested, and the Potency was inconclusive: 16.8 µM [inhibitor, partial curve].
For `CSc1nnc(C2CCNCC2)n1C`, the Potency was inconclusive: 89.1 µM [inhibitor, partial curve, poor fit].
`CCCCCCCCCC(CC)c1ccc(S(=O)(=O)O)cc1` (stereo not given) was tested, and the Potency was inconclusive: 26.7 µM [inhibitor, single point].
For `CCOc1ccc(N2C(=O)/C(=C/c3ccc(C)o3)C(=O)NC2=S)cc1`, the Potency was active: 28.2 µM.
In the case of `Cc1ccc(OCCn2cccc2/C=C2/C(=O)NC(=O)N(Cc3ccco3)C2=O)cc1`, the Potency is reported as active: 28.2 µM.
For `CCCCC/C=C\C/C=C\C/C=C\C/C=C\CCCC(=O)OC(CO)CO`, the Potency was inconclusive: 39.8 µM [inhibitor, single point].
In the case of `O=[N+]([O-])c1ccc(N2CCCCCC2)c2nonc12`, the Potency is reported as inconclusive: 12.6 µM [inhibitor, partial curve, poor fit].
`Cc1cc(O)c2c(c1)C(=O)C13C(=C2O)C(=O)[C@H]2[C@@H](O)[C@@H]1[C@H]1[C@H](O)[C@@H]3C(=O)C3=C(O)c4c(O)cc(C)cc4C(=O)C312` (stereo not given in full) was tested, and the Potency was inconclusive: 50.1 µM [inhibitor, partial curve, poor fit].
With `COc1cccc(N2C(=O)NC(=O)/C(=C\c3ccc([N+](=O)[O-])s3)C2=O)c1` the Potency was active: 25.1 µM.
`C=C(C)[C@]12C[C@@H](C)[C@@]34OC(Cc5ccccc5)(O[C@@H]1[C@@H]3C=C(COC(=O)Cc1cc(OC)c(O)cc1I)C[C@]1(O)C(=O)C(C)=C[C@@H]41)O2` was tested, and the Potency was inconclusive: 17.8 µM [inhibitor, partial curve, poor fit].
With `COC(=O)Cc1cc(=O)n(-c2ccccc2)[nH]1` the Potency was inconclusive: 89.1 µM [inhibitor, single point].
For `CN(C)[C@@H]1C(=O)C(C(N)=O)=C(O)[C@]2(O)C(=O)C3=C(O)c4c(O)cccc4[C@@](C)(O)[C@H]3[C@H](O)[C@@H]12`, the Potency was active: 4.74 µM.
With `CCOP(=S)(OCC)Oc1nc(Cl)c(Cl)cc1Cl` the Potency was “inactive”.
In the case of `O=C(O)Cn1cc(/C=C2\C(=O)NC(=O)N(Cc3ccco3)C2=O)c2ccccc21`, the Potency is reported as active: 20 µM.
With `CC(=O)O[C@H]1CCC2C3CCC4=CC(=O)CCC4=C3C=C[C@@]21C` (stereo not given in full) the “activity, negative = inhibition” value was inactive: -13.6%.
In the case of `CC(=O)O.CC(=O)O.[Cd]`, the Potency is reported as active: 10 µM.
For `CCCCCCCCCCCCSCCOCCO`, the Potency was inconclusive: 44.7 µM [inhibitor, partial curve, poor fit].
For `CC(=O)c1c(O)c(C)c(O)c(Cc2c(O)c3c(c(C(=O)/C=C/c4ccccc4)c2O)OC(C)(C)C=C3)c1O`, the Potency was inconclusive: 56.2 µM [inhibitor, partial curve, poor fit] and inconclusive: 12.6 µM [inhibitor, partial curve, poor fit].
For `O=C1NC(=O)N(Cc2ccco2)C(=O)/C1=C/c1cccn1CCOc1ccccc1Cl`, the Potency was inconclusive: 56.2 µM [inhibitor, partial curve, poor fit].
`COc1ccc(C(c2ccc(OC)cc2)C(Cl)(Cl)Cl)cc1` was tested, and the Potency was inconclusive: 100 µM [inhibitor, single point].
In the case of `C[C@@H](Cc1cccc(C(F)(F)F)c1)NCCCc1ccccc1`, the activity, negative = inhibition is reported as inactive: -12.1% [at 19.4 µM].
With `C=C1CCC(O)C/C1=C\C=C1/CCCC2(C)C1CCC2C(C)CCCC(C)C` (stereo not given) the Potency was inconclusive: 11.2 µM [inhibitor, partial curve, poor fit].
In the case of `CC(C)[C@]1(NC(=O)[C@@H]2C=C3c4cccc5[nH]cc(c45)C[C@H]3N(C)C2)O[C@@]2(O)C3CCCN3C(=O)[C@H](Cc3ccccc3)N2C1=O` (stereo not given in full), the Potency is reported as inconclusive: 2 µM [inhibitor, full curve].
For `NC1=N[C@H](O)[C@H]2C3O[C@]4(O)O[C@H](C(O)[C@@]2(N1)[C@@H]4O)C3(O)CO` (stereo not given in full), the “activity, negative = inhibition” value was inactive: -11.8% [at 60.1 µM].
With `Cc1cc(/C=C2\C(=O)NC(=O)N(c3ccc(Cl)cc3)C2=O)c(C)n1-c1sc2c(c1C#N)CCCC2` the Potency was active: 79.4 µM.
For `CCOc1ccc(-c2nc3cc(NC(=O)COc4cccc(C)c4)ccc3o2)cc1`, the Potency was inconclusive: 79.4 µM [inhibitor, partial curve, poor fit].
In the case of `CCN(CC)C(=O)c1ccc2c(c1)C1C=CCC1C(C(=O)O)N2` (stereo not given), the Potency is reported as inconclusive: 28.2 µM [inhibitor, single point].
`Cc1ccc(Cl)cc1NC(=O)N(Cc1ccc2c(c1)OCO2)C1CCN(Cc2ccccc2)CC1` was tested, and the “activity, negative = inhibition” value was inactive: -4.53%.
`CN1C[C@@H](C(=O)N[C@@]2(C)O[C@]3(O)C4CCCN4C(=O)[C@@H](Cc4ccccc4)N3C2=O)C=C2c3cccc4[nH]cc(c34)C[C@@H]21` (stereo not given in full) was tested, and the Potency was inconclusive: 0.501 µM [inhibitor, partial curve, poor fit].
`CCCCn1c(O)c(C(C)=Nc2ccc3c(c2)CCC3)c(=O)[nH]c1=O` was tested, and the Potency was inconclusive: 39.8 µM [inhibitor, single point].
In the case of `CN(C)[C@@H]1C(=O)C(C(N)=O)=C(O)[C@@]2(O)C(=O)C3=C(O)c4c(O)cccc4[C@@](C)(O)C3[C@H](O)C12` (stereo not given in full), the Potency is reported as active: 8.91 µM.
`O=C(c1ccccc1)c1ccc(N=Nc2c(O)[nH]c(=O)[nH]c2=O)cc1` was tested, and the Potency was inconclusive: 50.1 µM [inhibitor, partial curve, poor fit].
With `COc1cc2c(cc1O)CC1c3c(cc(O)c(OC)c3-2)CCN1C` (stereo not given) the Potency was inconclusive: 17.8 µM [inhibitor, partial curve].
`O=C1NC(=O)C2(Cc3ccccc3N3CCCC32)C(=O)N1c1ccccc1` (stereo not given) was tested, and the Potency was inconclusive: 89.1 µM [inhibitor, partial curve, poor fit].
`CCCCCCCCCCCCCCOS(=O)(=O)O` was tested, and the Potency was inconclusive: 37.7 µM [inhibitor, single point].
`CO[C@H]1C=C2CCN(C)[C@H]2C2c3cc4c(cc3C(=O)O[C@@H]21)OCO4` (stereo not given in full) was tested, and the Potency was inconclusive: 89.1 µM [inhibitor, single point].
With `CCCCC/C=C\C/C=C\C/C=C\C/C=C\CCCC(=O)NCC(=O)O` the Potency was active: 7.52 µM and the activity, negative = inhibition was inactive: 5.51% [at 2.39 µM] and inactive: 1.64% [at 19.4 µM].
With `Oc1ccc(Cl)cc1Cc1cc(Cl)ccc1O` the Potency was inconclusive: 22.4 µM [inhibitor, partial curve].
`C=C1C([C@@]2(C)C(OC(C)=O)CC(=O)O[C@@](C)(COC(C)=O)C2CC(=O)OC)C(OC=O)C(OC(=O)C(OC(C)=O)C(C)CC)[C@]2(C)C(c3ccoc3)CC(=O)C12O` (stereo not given in full) was tested, and the Potency was inconclusive: 7.94 µM [inhibitor, full curve, poor fit].
In the case of `C[C@@]12CC[C@@H]3c4ccc(O)cc4C[C@H](CCCCCCCCCS(=O)CCCC(F)(F)C(F)(F)F)[C@H]3[C@@H]1CC[C@@H]2O` (stereo not given in full), the Potency is reported as inconclusive: 2.82 µM [inhibitor, partial curve, poor fit].
In the case of `Cc1cc(/C=C/c2ccnc3ccccc23)ccc1N(CCCl)CCCl`, the “activity, negative = inhibition” value is reported as inactive: -13.6%.
With `COc1ccc(-n2c(-c3ccco3)nc3c(cnn3-c3ccc(Cl)cc3)c2=O)cc1` the Potency was inconclusive: 79.4 µM [inhibitor, partial curve, poor fit].
For `CCCCC/C=C\C/C=C\C/C=C\C/C=C\CCCC(=O)NC1CC1`, the Potency was inconclusive: 39.8 µM [inhibitor, partial curve, poor fit].
`CCCC(C)(COC(N)=O)COC(=O)NC(C)C` (stereo not given) was tested, and the Potency was inconclusive: 35.5 µM [inhibitor, single point].
In the case of `O=c1[nH]c(=S)n(Cc2ccco2)c(O)c1C=NCc1cccs1`, the Potency is reported as active: 50.1 µM.
`Ic1cncc(OC[C@@H]2CCN2)c1` was tested, and the activity, negative = inhibition was inactive: -9.7% [at 19.4 µM].
With `N#CC(C#N)=NNc1ccc(OC(F)(F)F)cc1` the Potency was inconclusive: 8.91 µM [inhibitor, partial curve, poor fit].
With `O=C1NC(=O)C(=Cc2coc3ccc(O)cc3c2=O)C(=O)N1` the “activity, negative = inhibition” value was inactive: 0%.
`CC[N+](C)(CC)CCCCOc1ccc2c(c1)C(=O)c1cc(OCCCC[N+](C)(CC)CC)ccc1-2` was tested, and the Potency was inconclusive: 89.1 µM [inhibitor, partial curve, poor fit].
For `CCCCC/C=C\C/C=C\C/C=C\C/C=C\CCCC(=O)NCCc1ccc(O)c(O)c1`, the Potency was inconclusive: 35.5 µM [inhibitor, single point].
`O=C1C(Cl)=C(Cl)C(=O)C(Cl)=C1Cl` was tested, and the Potency was inconclusive: 35.5 µM [inhibitor, single point].
With `CCN(CC)P(=O)(NC(=O)C(Cl)(Cl)Cl)N(CC)CC.[Cl-].[Cl-].[Cl-].[Nd+3]` the Potency was active: 79.4 µM.
`O=C1NC(=O)N(c2cccc(Cl)c2)C(=O)/C1=C\c1ccc(Sc2nc3ccccc3[nH]2)o1` was tested, and the Potency was active: 22.4 µM.
For `ClCCN(CCCl)c1ccc(/C=C/c2sc3ccccc3[n+]2CCCCI)cc1`, the Potency was active: 28.2 µM.
For `C=C/C(=C/C(=O)C[C@H](C)C[C@@H](C)CC[C@H](O)[C@H](C)C(=O)C[C@@H](O)[C@H](C)[C@@H](C)OC(=O)C[C@@H](O)C1=C(C)C(=O)OC1=O)CC`, the Potency was active: 4.74 µM.
In the case of `CN1CC(CO)=C[C@H]2c3cccc4[nH]cc(c34)C[C@H]21`, the Potency is reported as inconclusive: 15.8 µM [inhibitor, partial curve].
